Results published in ChEMBL document CHEMBL1961873, “Compounds: GSK PKIS; Assays: Nanosyn kinase panel” (2012).
The entries are a selection whose mix differs from that of the whole data set.

Assays:
[1] = target: RAC-alpha serine/threonine-protein kinase (Homo sapiens) (UniProt P31749); settings: at 0.1 µM
[2] = target: RAC-alpha serine/threonine-protein kinase (Homo sapiens) (UniProt P31749); settings: at 1 µM
[3] = target: RAC-beta serine/threonine-protein kinase (Homo sapiens) (UniProt P31751); settings: at 0.1 µM
UniProt P31751, sequence (P31751 whole entry): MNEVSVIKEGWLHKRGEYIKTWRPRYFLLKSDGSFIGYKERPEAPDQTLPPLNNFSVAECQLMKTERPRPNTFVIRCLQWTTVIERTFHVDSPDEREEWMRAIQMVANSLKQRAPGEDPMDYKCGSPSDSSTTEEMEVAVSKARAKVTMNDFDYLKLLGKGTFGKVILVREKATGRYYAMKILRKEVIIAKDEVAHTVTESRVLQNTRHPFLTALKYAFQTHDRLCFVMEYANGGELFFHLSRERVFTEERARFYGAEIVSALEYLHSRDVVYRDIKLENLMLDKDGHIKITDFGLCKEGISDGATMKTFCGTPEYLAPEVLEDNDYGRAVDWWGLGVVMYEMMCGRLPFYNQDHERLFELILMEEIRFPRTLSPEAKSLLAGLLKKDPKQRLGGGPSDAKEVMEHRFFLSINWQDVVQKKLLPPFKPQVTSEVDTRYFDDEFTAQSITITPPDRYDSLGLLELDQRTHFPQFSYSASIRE

[4] = target: RAC-beta serine/threonine-protein kinase (Homo sapiens) (UniProt P31751); settings: at 1 µM
[5] = target: RAC-gamma serine/threonine-protein kinase (Homo sapiens) (UniProt Q9Y243); settings: at 0.1 µM
UniProt Q9Y243, sequence (Q9Y243 whole entry): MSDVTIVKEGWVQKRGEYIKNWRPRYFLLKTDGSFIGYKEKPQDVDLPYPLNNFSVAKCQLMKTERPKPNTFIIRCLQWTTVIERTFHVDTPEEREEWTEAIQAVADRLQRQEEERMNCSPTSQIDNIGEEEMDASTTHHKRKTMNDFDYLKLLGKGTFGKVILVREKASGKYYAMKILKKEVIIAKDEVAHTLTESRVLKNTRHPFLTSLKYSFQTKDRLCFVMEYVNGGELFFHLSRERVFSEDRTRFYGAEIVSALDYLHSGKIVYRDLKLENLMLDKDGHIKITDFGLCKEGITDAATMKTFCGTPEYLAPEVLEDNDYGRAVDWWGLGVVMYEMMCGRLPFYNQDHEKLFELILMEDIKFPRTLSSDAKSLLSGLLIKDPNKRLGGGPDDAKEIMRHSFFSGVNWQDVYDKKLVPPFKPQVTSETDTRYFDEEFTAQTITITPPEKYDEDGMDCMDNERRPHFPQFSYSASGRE

[6] = target: RAC-gamma serine/threonine-protein kinase (Homo sapiens) (UniProt Q9Y243); settings: at 1 µM
[7] = target: G protein-coupled receptor kinase 6 (Homo sapiens) (UniProt P43250); settings: at 0.1 µM
UniProt P43250, sequence (P43250 whole entry, looked up): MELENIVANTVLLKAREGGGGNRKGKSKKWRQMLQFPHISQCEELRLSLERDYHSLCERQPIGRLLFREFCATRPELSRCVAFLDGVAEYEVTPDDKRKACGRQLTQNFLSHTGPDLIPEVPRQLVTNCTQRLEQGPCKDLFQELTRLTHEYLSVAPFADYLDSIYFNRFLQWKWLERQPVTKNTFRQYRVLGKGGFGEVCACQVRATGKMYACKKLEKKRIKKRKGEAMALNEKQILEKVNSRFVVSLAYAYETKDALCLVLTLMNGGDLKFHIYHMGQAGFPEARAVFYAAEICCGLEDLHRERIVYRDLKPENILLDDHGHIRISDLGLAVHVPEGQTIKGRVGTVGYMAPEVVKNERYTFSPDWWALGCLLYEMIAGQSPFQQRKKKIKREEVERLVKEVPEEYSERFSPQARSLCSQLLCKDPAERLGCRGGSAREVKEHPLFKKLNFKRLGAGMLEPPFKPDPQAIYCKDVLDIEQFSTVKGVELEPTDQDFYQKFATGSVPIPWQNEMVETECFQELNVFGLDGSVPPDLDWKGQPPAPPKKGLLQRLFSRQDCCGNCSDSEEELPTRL

[8] = target: G protein-coupled receptor kinase 6 (Homo sapiens) (UniProt P43250); settings: at 1 µM
[9] = target: T1, Rhodopsin kinase GRK7 (Homo sapiens) (UniProt Q8WTQ7); settings: at 0.1 µM
T1 sequence (whole entry): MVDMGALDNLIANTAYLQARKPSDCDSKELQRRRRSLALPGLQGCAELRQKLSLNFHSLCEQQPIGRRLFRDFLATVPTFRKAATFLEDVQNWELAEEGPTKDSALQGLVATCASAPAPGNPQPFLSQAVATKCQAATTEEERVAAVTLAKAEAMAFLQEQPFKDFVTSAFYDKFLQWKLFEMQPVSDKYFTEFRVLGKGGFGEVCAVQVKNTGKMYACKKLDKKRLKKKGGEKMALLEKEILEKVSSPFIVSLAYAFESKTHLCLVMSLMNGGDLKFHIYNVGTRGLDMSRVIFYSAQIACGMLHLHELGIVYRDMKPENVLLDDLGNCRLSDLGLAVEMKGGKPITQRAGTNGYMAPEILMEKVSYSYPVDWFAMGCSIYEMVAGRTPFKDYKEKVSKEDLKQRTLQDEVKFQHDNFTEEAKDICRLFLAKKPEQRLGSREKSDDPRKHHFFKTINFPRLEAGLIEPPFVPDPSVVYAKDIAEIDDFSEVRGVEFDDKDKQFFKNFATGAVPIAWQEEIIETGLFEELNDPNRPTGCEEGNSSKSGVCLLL

[10] = target: T1, Rhodopsin kinase GRK7 (Homo sapiens); settings: at 1 µM

UniProt P31749, sequence (P31749 whole entry): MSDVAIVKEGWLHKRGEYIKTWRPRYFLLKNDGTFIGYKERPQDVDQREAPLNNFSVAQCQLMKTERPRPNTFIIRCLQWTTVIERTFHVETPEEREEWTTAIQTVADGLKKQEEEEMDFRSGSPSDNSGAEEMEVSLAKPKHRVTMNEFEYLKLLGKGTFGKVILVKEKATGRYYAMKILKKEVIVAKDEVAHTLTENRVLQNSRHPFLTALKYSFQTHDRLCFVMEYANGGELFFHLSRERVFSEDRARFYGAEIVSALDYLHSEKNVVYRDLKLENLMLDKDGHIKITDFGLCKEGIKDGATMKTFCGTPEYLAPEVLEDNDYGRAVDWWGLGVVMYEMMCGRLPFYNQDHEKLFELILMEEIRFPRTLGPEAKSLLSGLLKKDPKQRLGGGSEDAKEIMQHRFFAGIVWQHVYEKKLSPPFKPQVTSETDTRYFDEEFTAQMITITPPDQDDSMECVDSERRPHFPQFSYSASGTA

SMILES | inhibition [1] | inhibition [2] | inhibition [3] | inhibition [4] | inhibition [5] | inhibition [6] | inhibition [7] | inhibition [8] | inhibition [9] | inhibition [10]
Fc1ccc(Oc2nccc(-c3c(-c4ccc(F)cc4)ncn3C3CCNCC3)n2)cc1 | -2.29% | -1.29% | -2.94% | -3.14% | -2.48% | 0.71% | 4.21% | 7.29% | 10.4% | 0.76%
O=C1NC(=O)C(c2cccc([N+](=O)[O-])c2)=C1Nc1cc(Cl)c(O)c(Cl)c1 | 0.88% | 0.14% | -0.56% | 1.26% | 0.12% | 0.95% | -1.83% | 0.24% | 6.8% | 4.27%
CC(C)(C)c1ccc(Oc2nccc(-c3c(-c4ccc(F)cc4)ncn3C3CCNCC3)n2)cc1 | 1.09% | 0.59% | 1.29% | 2.02% | 0.81% | 3.88% | 2.23% | 4.45% | 8.22% | 0.89%
COc1ccccc1C1=C(Nc2ccccc2)C(=O)NC1=O | 0.17% | 1.46% | 2.59% | 2.36% | 1.17% | 3.11% | 4.81% | 6.4% | 1.66% | -0.25%
NC(=O)CCc1ccccc1Oc1nccc(-c2c(-c3ccc(F)cc3)ncn2C2CCNCC2)n1 | -2.24% | -1.9% | -3.59% | -1.1% | -1.94% | 0% | -3.18% | 0.59% | 2.82% | –
COc1ccccc1Oc1nccc(-c2c(-c3ccc(F)cc3)ncn2C2CCNCC2)n1 | 0.38% | 0.36% | 2.55% | 1.54% | 1.9% | 1.95% | 1.78% | 3.3% | 9.96% | 3.73%
Cc1cccc(Oc2nccc(-c3c(-c4ccc(F)cc4)ncn3C3CCNCC3)n2)c1C | 0.36% | 0.41% | 1.92% | 3.53% | 1.48% | 1.35% | -0.55% | 1.29% | 8.84% | 3%
O=C1NC(=O)C(c2ccccc2Cl)=C1Nc1cc(Cl)c(O)c(Cl)c1 | 0.78% | 0.48% | 0.71% | 1.42% | 0.46% | 1% | 5.36% | 12% | 1.91% | 3.62%
Fc1ccc(-c2ncn(C3CCNCC3)c2-c2ccnc(Oc3cccc(F)c3)n2)cc1 | 0.89% | 0.08% | 0.95% | 2.49% | 1.11% | 6.35% | 5.11% | 4.97% | 9.74% | 1%
O=C1NC(=O)C(c2ccccc2)=C1Nc1ccccc1 | 0.9% | 1.31% | 2.55% | 2.42% | 1.12% | 3.13% | 6.74% | 8.58% | 5% | 9.97%
CS(=O)(=O)c1ccc(Oc2nccc(-c3c(-c4ccc(F)cc4)ncn3C3CCNCC3)n2)cc1 | 1.93% | 1.34% | 1.2% | 2.26% | 0.65% | 3.92% | 1.17% | 2.47% | 9.09% | 2.06%
Fc1ccc(-c2ncn(C3CCNCC3)c2-c2ccnc(Oc3ccc(Cl)cc3)n2)cc1 | -0.28% | -0.24% | 0.02% | 0.86% | -0.38% | 5.21% | -0.19% | 0.67% | 6.72% | -5.01%
Fc1ccc(-c2ncn(C3CCNCC3)c2-c2ccnc(Oc3cccc(C(F)(F)F)c3)n2)cc1 | 2.32% | 1.68% | 2.55% | 3.94% | 1% | 6.2% | 3.08% | 3.94% | 10.1% | 2.14%
O=C(O)c1ccc(Oc2nccc(-c3c(-c4ccc(F)cc4)ncn3C3CCNCC3)n2)cc1 | 1.59% | 2.05% | 1.18% | 0.93% | 1.33% | 5.64% | 3.68% | 4.13% | 9.55% | 1.88%
